Viability of KB3-1 and Nalm-6 cells after 48 h of drug alone (CellTiter-Glo), 11 doses over about 4.5 log units. % of DMSO wells, lower = more cell loss; AC50 from the fitted curve, lower = more potent. No active / inactive call. Nalm-6 was screened in two runs. AC50 is listed only for well-fitted inhibitory curves. KB3-1 is a HeLa-derived carcinoma line, Nalm-6 a B-cell precursor leukaemia line.
Legend:
Nalm-6 = assay: viability (% of DMSO control); higher = more viable cells
Description: (§1)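 Eleven-dose screen of the NCATS MIPE 3 library on cells without co-treatment; CellTiter-Glo after 48 h, as % of DMSO wells.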

KB3-1 = assay: as above
Description: as §1

CC(=O)O[C@@]12CO[C@@H]1C[C@H](O)[C@]3(C)[C@@H]2[C@H](OC(=O)C4=CC=CC=C4)[C@]5(O)C[C@H](OC(=O)[C@H](O)[C@@H](NC(=O)OC(C)(C)C)C6=CC=CC=C6)C(=C([C@@H](O)C3=O)/C5(C)C)\C [Docetaxel]
Conditions | viability [%]
KB3-1, 0.00078 µM | 27.5
KB3-1, 0.00234 µM | 26
KB3-1, 0.00702 µM | 22.9
KB3-1, 0.0211 µM | 25.9
KB3-1, 0.0632 µM | 21.5
KB3-1, 0.19 µM | 23.2
KB3-1, 0.569 µM | 20.6
KB3-1, 1.71 µM | 20
KB3-1, 5.12 µM | 21.5
KB3-1, 15.4 µM | 22.6
KB3-1, 46.1 µM | 15.1
Nalm-6, run: 1, 0.00078 µM | 35.5
Nalm-6, run: 1, 0.00234 µM | 19.8
Nalm-6, run: 1, 0.00702 µM | 14.5
Nalm-6, run: 1, 0.0211 µM | 13.9
Nalm-6, run: 1, 0.0632 µM | 12.4
Nalm-6, run: 1, 0.19 µM | 14.4
Nalm-6, run: 1, 0.569 µM | 18.5
Nalm-6, run: 1, 1.71 µM | 22.8
Nalm-6, run: 1, 5.12 µM | 25.5
Nalm-6, run: 1, 15.4 µM | 26.7
Nalm-6, run: 1, 46.1 µM | 20.4
Nalm-6, run: 2, 0.00078 µM | 30.3
Nalm-6, run: 2, 0.00234 µM | 19.8
Nalm-6, run: 2, 0.00702 µM | 12
Nalm-6, run: 2, 0.0211 µM | 11.2
Nalm-6, run: 2, 0.0632 µM | 9.95
Nalm-6, run: 2, 0.19 µM | 11.2
Nalm-6, run: 2, 0.569 µM | 12
Nalm-6, run: 2, 1.71 µM | 14
Nalm-6, run: 2, 5.12 µM | 16.1
Nalm-6, run: 2, 15.4 µM | 17.6
Nalm-6, run: 2, 46.1 µM | 7.56

O=C(O)[C@H](Cc1c[nH]c2ccccc12)N1C(=O)c2ccccc2C1=O [RG-108]
Conditions | viability [%]
KB3-1, 0.00078 µM | 99
KB3-1, 0.00234 µM | 102
KB3-1, 0.00702 µM | 98.7
KB3-1, 0.0211 µM | 101
KB3-1, 0.0632 µM | 112
KB3-1, 0.19 µM | 111
KB3-1, 0.569 µM | 106
KB3-1, 1.71 µM | 114
KB3-1, 5.12 µM | 102
KB3-1, 15.4 µM | 90.1
KB3-1, 46.1 µM | 103
Nalm-6, run: 1, 0.00078 µM | 101
Nalm-6, run: 1, 0.00234 µM | 109
Nalm-6, run: 1, 0.00702 µM | 110
Nalm-6, run: 1, 0.0211 µM | 106
Nalm-6, run: 1, 0.0632 µM | 106
Nalm-6, run: 1, 0.19 µM | 101
Nalm-6, run: 1, 0.569 µM | 110
Nalm-6, run: 1, 1.71 µM | 109
Nalm-6, run: 1, 5.12 µM | 111
Nalm-6, run: 1, 15.4 µM | 109
Nalm-6, run: 1, 46.1 µM | 105
Nalm-6, run: 2, 0.00078 µM | 98.6
Nalm-6, run: 2, 0.00234 µM | 98.8
Nalm-6, run: 2, 0.00702 µM | 105
Nalm-6, run: 2, 0.0211 µM | 105
Nalm-6, run: 2, 0.0632 µM | 107
Nalm-6, run: 2, 0.19 µM | 106
Nalm-6, run: 2, 0.569 µM | 108
Nalm-6, run: 2, 1.71 µM | 97.3
Nalm-6, run: 2, 5.12 µM | 105
Nalm-6, run: 2, 15.4 µM | 108
Nalm-6, run: 2, 46.1 µM | 98.3

Nc1cccc2c1CN(C1CCC(=O)NC1=O)C2=O (stereo unspecified) [Lenalidomide]
KB3-1
Conditions | viability [%]
0.00156 µM | 106
0.00468 µM | 103
0.014 µM | 104
0.0421 µM | 104
0.126 µM | 102
0.379 µM | 103
1.14 µM | 101
3.41 µM | 102
10.2 µM | 102
30.7 µM | 98.7
92.2 µM | 99.7

COC1=C(OC)C=C(CC/2=N/N\3C(C(C)\N=C3[C@@H](CCC4=CC=CC=C4)[C@@H](C)O)C(=O)N2)C=C1 (stereo partly specified) [BAY-60-7550]
Conditions | viability [%]
KB3-1, 0.00078 µM | 109
KB3-1, 0.00234 µM | 106
KB3-1, 0.00702 µM | 106
KB3-1, 0.0211 µM | 108
KB3-1, 0.0632 µM | 97.5
KB3-1, 0.19 µM | 110
KB3-1, 0.569 µM | 105
KB3-1, 1.71 µM | 103
KB3-1, 5.12 µM | 103
KB3-1, 15.4 µM | 99.7
KB3-1, 46.1 µM | 79.5
Nalm-6, run: 1, 0.00078 µM | 106
Nalm-6, run: 1, 0.00234 µM | 111
Nalm-6, run: 1, 0.00702 µM | 109
Nalm-6, run: 1, 0.0211 µM | 120
Nalm-6, run: 1, 0.0632 µM | 117
Nalm-6, run: 1, 0.19 µM | 123
Nalm-6, run: 1, 0.569 µM | 110
Nalm-6, run: 1, 1.71 µM | 114
Nalm-6, run: 1, 5.12 µM | 110
Nalm-6, run: 1, 15.4 µM | 105
Nalm-6, run: 1, 46.1 µM | 61.3
Nalm-6, run: 2, 0.00078 µM | 103
Nalm-6, run: 2, 0.00234 µM | 109
Nalm-6, run: 2, 0.00702 µM | 104
Nalm-6, run: 2, 0.0211 µM | 108
Nalm-6, run: 2, 0.0632 µM | 107
Nalm-6, run: 2, 0.19 µM | 110
Nalm-6, run: 2, 0.569 µM | 106
Nalm-6, run: 2, 1.71 µM | 105
Nalm-6, run: 2, 5.12 µM | 111
Nalm-6, run: 2, 15.4 µM | 107
Nalm-6, run: 2, 46.1 µM | 62

CCOC(=O)C/1=C(O)/C(=O)N(CC2=CC=CC=C2)C1 [EBPC]
Conditions | viability [%]
KB3-1, 0.00078 µM | 103
KB3-1, 0.00234 µM | 109
KB3-1, 0.00702 µM | 110
KB3-1, 0.0211 µM | 103
KB3-1, 0.0632 µM | 109
KB3-1, 0.19 µM | 111
KB3-1, 0.569 µM | 109
KB3-1, 1.71 µM | 111
KB3-1, 5.12 µM | 105
KB3-1, 15.4 µM | 102
KB3-1, 46.1 µM | 16.6
Nalm-6, run: 1, 0.00078 µM | 130
Nalm-6, run: 1, 0.00234 µM | 136
Nalm-6, run: 1, 0.00702 µM | 119
Nalm-6, run: 1, 0.0211 µM | 128
Nalm-6, run: 1, 0.0632 µM | 128
Nalm-6, run: 1, 0.19 µM | 132
Nalm-6, run: 1, 0.569 µM | 132
Nalm-6, run: 1, 1.71 µM | 127
Nalm-6, run: 1, 5.12 µM | 132
Nalm-6, run: 1, 15.4 µM | 130
Nalm-6, run: 1, 46.1 µM | 111
Nalm-6, run: 2, 0.00078 µM | 103
Nalm-6, run: 2, 0.00234 µM | 110
Nalm-6, run: 2, 0.00702 µM | 110
Nalm-6, run: 2, 0.0211 µM | 110
Nalm-6, run: 2, 0.0632 µM | 112
Nalm-6, run: 2, 0.19 µM | 106
Nalm-6, run: 2, 0.569 µM | 108
Nalm-6, run: 2, 1.71 µM | 53.8
Nalm-6, run: 2, 5.12 µM | 100
Nalm-6, run: 2, 15.4 µM | 30.4
Nalm-6, run: 2, 46.1 µM | 63

Cc1cnc(Nc2ccc(OCCN3CCCC3)cc2)nc1Nc1cccc(S(=O)(=O)NC(C)(C)C)c1
Conditions | viability [%]
KB3-1, 0.00078 µM | 101
KB3-1, 0.00234 µM | 110
KB3-1, 0.00702 µM | 100
KB3-1, 0.0211 µM | 101
KB3-1, 0.0632 µM | 97
KB3-1, 0.19 µM | 107
KB3-1, 0.569 µM | 81.4
KB3-1, 1.71 µM | 99.6
KB3-1, 5.12 µM | 102
KB3-1, 15.4 µM | 101
KB3-1, 46.1 µM | 86.4
Nalm-6, run: 1, 0.00078 µM | 103
Nalm-6, run: 1, 0.00234 µM | 106
Nalm-6, run: 1, 0.00702 µM | 106
Nalm-6, run: 1, 0.0211 µM | 111
Nalm-6, run: 1, 0.0632 µM | 100
Nalm-6, run: 1, 0.19 µM | 115
Nalm-6, run: 1, 0.569 µM | 110
Nalm-6, run: 1, 1.71 µM | 101
Nalm-6, run: 1, 5.12 µM | 101
Nalm-6, run: 1, 15.4 µM | 99.9
Nalm-6, run: 1, 46.1 µM | 30
Nalm-6, run: 2, 0.00078 µM | 99.8
Nalm-6, run: 2, 0.00234 µM | 101
Nalm-6, run: 2, 0.00702 µM | 103
Nalm-6, run: 2, 0.0211 µM | 105
Nalm-6, run: 2, 0.0632 µM | 100
Nalm-6, run: 2, 0.19 µM | 104
Nalm-6, run: 2, 0.569 µM | 103
Nalm-6, run: 2, 1.71 µM | 100
Nalm-6, run: 2, 5.12 µM | 107
Nalm-6, run: 2, 15.4 µM | 94.8
Nalm-6, run: 2, 46.1 µM | 22.2

COc1ccc(CCN(C)CCCC(C#N)(c2ccc(OC)c(OC)c2)C(C)C)cc1OC (stereo unspecified) [Verapamil]
Nalm-6
Conditions | viability [%]
run: 1, 0.00078 µM | 89.8
run: 1, 0.00234 µM | 99.5
run: 1, 0.00702 µM | 103
run: 1, 0.0211 µM | 95.6
run: 1, 0.0632 µM | 100
run: 1, 0.19 µM | 103
run: 1, 0.569 µM | 109
run: 1, 1.71 µM | 107
run: 1, 5.12 µM | 104
run: 1, 15.4 µM | 97.7
run: 1, 46.1 µM | 72.7
run: 2, 0.00078 µM | 91.2
run: 2, 0.00234 µM | 101
run: 2, 0.00702 µM | 103
run: 2, 0.0211 µM | 97.4
run: 2, 0.0632 µM | 104
run: 2, 0.19 µM | 95.6
run: 2, 0.569 µM | 97.8
run: 2, 1.71 µM | 102
run: 2, 5.12 µM | 102
run: 2, 15.4 µM | 105
run: 2, 46.1 µM | 59.4

CCC(C)(C)C(=O)O[C@H]1C[C@@H](C)C=C2C=C[C@H](C)[C@H](CC[C@@H]3C[C@@H](O)CC(=O)O3)[C@H]21 [Simvastatin]
Nalm-6
Conditions | viability [%]
run: 1, 0.000349 µM | 77.4
run: 1, 0.00105 µM | 88.7
run: 1, 0.00314 µM | 111
run: 1, 0.00942 µM | 101
run: 1, 0.0283 µM | 89.4
run: 1, 0.0848 µM | 114
run: 1, 0.254 µM | 105
run: 1, 0.763 µM | 108
run: 1, 2.29 µM | 114
run: 1, 6.87 µM | 122
run: 1, 20.6 µM | 57.4
run: 2, 0.000349 µM | 99.4
run: 2, 0.00105 µM | 94.7
run: 2, 0.00314 µM | 105
run: 2, 0.00942 µM | 98.3
run: 2, 0.0283 µM | 100
run: 2, 0.0848 µM | 104
run: 2, 0.254 µM | 101
run: 2, 0.763 µM | 100
run: 2, 2.29 µM | 101
run: 2, 6.87 µM | 104
run: 2, 20.6 µM | 75

COC1=CC=C(C(=C1)OC(C)C)C/2=N/[C@@H]([C@@H](N2C(=O)N3CCNC(=O)C3)C4=CC=C(Cl)C=C4)C5=CC=C(Cl)C=C5 [Nutlin-3]
KB3-1
Conditions | viability [%]
0.00078 µM | 98.7
0.00234 µM | 101
0.00702 µM | 101
0.0211 µM | 105
0.0632 µM | 97.9
0.19 µM | 99.3
0.569 µM | 102
1.71 µM | 101
5.12 µM | 106
15.4 µM | 104
46.1 µM | 59.8

Source: the supplement of paper PMC4996465
